# From PubChem BioAssay AID894 (National Center for Advancing Translational Sciences (NCATS), 2007)
# “And” between values parts separate entries of the source, which are not always exact repeats. Equal values may be shown once. The whole screen tested about 150,000 compounds, of which about 6,500 (4.3%) were called active. The inconclusive results got no clear call from the source; some entries with a clear call stand among them for comparison. Calls come from the whole dose curve; as a rule, active = well fitted inhibition curve with a large enough effect (not every such curve was filed as active); inconclusive = small, poorly fitted or top-dose-only effect, or another doubt; inactive = no such curve, though single readings can be large or run the other way. No potency is given beside an inconclusive call; the fits are too rough.
# Target: 15-hydroxyprostaglandin dehydrogenase [NAD(+)] (Homo sapiens) (UniProt P15428)
# Chain of UniProt P15428 (P15428 whole entry, looked up): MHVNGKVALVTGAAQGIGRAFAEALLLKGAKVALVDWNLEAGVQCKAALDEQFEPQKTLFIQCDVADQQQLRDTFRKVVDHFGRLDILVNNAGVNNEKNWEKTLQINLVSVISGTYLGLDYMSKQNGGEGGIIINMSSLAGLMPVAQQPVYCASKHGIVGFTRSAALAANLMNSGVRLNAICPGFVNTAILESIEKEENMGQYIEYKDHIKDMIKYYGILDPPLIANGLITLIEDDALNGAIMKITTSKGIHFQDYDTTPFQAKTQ
# Assay: qHTS Assay for Inhibitors of HPGD (15-Hydroxyprostaglandin Dehydrogenase)
# Conditions: purified HPGD, NADH fluorescence kinetic, PGE2 substrate; activity change, negative = inhibition: hits give low values
# Procedure, shortened: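 20 nM HPGD preincubated 15 min at room temperature with compound in 50 mM Tris-HCl pH 8, 0.01% Tween 20. Started with 1 mM NAD+ and 30 uM prostaglandin E2; NADH fluorescence (360/450 nm) read 5 times over 30-s intervals, last minus first.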
# % is set by controls: 0 for no effect and ±100 for the full control effect; potency is the fitted concentration of half-maximal effect; tags give direction and shape of the fitted curve.
Compound,Potency,"activity change, negative = inhibition"
COc1ccc(CCNc2oc(-c3ccco3)nc2C#N)cc1,"inconclusive [inhibitor, single point]",
O=C(NCc1ccccn1)c1ccc(Cl)cc1Cl,active: 20 µM,
CC(C)[C@H](NC(=O)c1ccccc1)C(=O)OCC(=O)c1ccc2c(c1)NC(=O)CO2,,inactive: -24.1%
CC(=O)N1CC=CC1(C)C(=O)NCC1CC1 (stereo unspecified),"inconclusive [inhibitor, partial curve, poor fit]",
CCCc1nc2oc3c(NCC4CCCO4)ncnc3c2c2c1COC(C)(C)C2 (stereo unspecified),"inconclusive [inhibitor, partial curve]",
CCOC(=O)c1cn(-c2nc(-c3ccc(Cl)cc3)cs2)c2c(F)c(N3CC(C)OC(C)C3)c(F)cc2c1=O (stereo unspecified),"inconclusive [inhibitor, single point]",
O=C(CC1CCCCC1)NC1CCCC1,active: 17.8 µM,
CC1CCC(C(C)C)C(OC(=O)Cn2c(-c3ccccc3)[n+](C)c3ccccc32)C1 (stereo unspecified),,inactive: -2.33% and inactive: 2.52%
O=C(Cn1sc2ccccc2c1=O)NC12CC3CC(CC(C3)C1)C2,active: 0.316 µM,
CCOC(=O)CC1C(=O)NCCN1S(=O)(=O)c1ccc(Cl)cc1Cl (stereo unspecified),,inactive: -9.86%
CC(C)(C)Nc1ncnc2c1cnn2-c1ccccc1,active: 25.1 µM,
COC(=O)c1c(NC(C)=O)sc2c1CCCCC2,active: 28.2 µM,
CC(SCC(=O)NC(C)C1CC2CCC1C2)C(=O)O (stereo unspecified),,inactive: -8.17%
O=C(CSc1nc2c(c(=O)[nH]1)CCCC2)Nc1ccc(Cl)cc1F,"inconclusive [inhibitor, partial curve]",
Cc1cc(/C=N/O)c(C)n1-c1ccc(Br)cc1,"inconclusive [inhibitor, partial curve]",
COc1ccc(C(=O)Nc2nc(-c3cccs3)c(NC(C)=O)s2)cc1,"inconclusive [inhibitor, single point]",
COc1cc(/C=C2\SC(=Nc3ccccc3)N(CCc3c[nH]c4ccccc34)C2=O)ccc1OC(C)C(=O)O (stereo unspecified),"inconclusive [inhibitor, single point]",
CC(C)Cn1c(=O)c(C(=O)N/N=C/c2cccc(F)c2)c(O)c2ccccc21,,inactive: -11.9%
CC(C)CCOCc1nc2sc3c(c2c(=O)[nH]1)CCC(C)C3 (stereo unspecified),"inconclusive [inhibitor, partial curve]",
Cc1cccc(NC(=O)Cc2coc3ccc4ccccc4c23)n1,active: 15.8 µM,
Cc1ccc(Cn2c(=O)c3c(nc4n3CCCN4Cc3ccccc3)n(C)c2=O)cc1,"inconclusive [inhibitor, single point]",
CCN(C(=O)c1cc2cccc(OC)c2oc1=O)c1ccccc1,active: 22.4 µM,
O=C(/C=C/c1ccc(Cl)c(Cl)c1)NCc1ccco1,"inconclusive [inhibitor, single point]",
CC1=NOC(=O)/C1=C/c1ccc(-c2ccc(Cl)cc2)o1,active: 1.12 µM,

Compound,Potency,"activity change, negative = inhibition"
Cc1ccc(C#N)c(SCc2nnc(-c3ccc(Cl)cc3)o2)n1,"inconclusive [inhibitor, full curve]",
Clc1nc(-c2ccccc2)cc(-c2ccccc2)n1,"inconclusive [inhibitor, partial curve]",
Cc1c(C(=O)N/N=C/c2ccc(O)c(Br)c2)sc(N)c1C#N,"inconclusive [inhibitor, single point]",
CCN(CC)C(=O)c1ccc2c(=O)n(CCOC)c(=S)[nH]c2c1,active: 14.1 µM,
COc1ccc(NC(=S)NNC(=O)c2ccccc2OC(F)F)cc1,,inactive: -17.8%
COc1cc(/C=C2\C(=O)N(CCC#N)N=C2C)ccc1OCC(=O)Nc1ccccc1,active: 10 µM,
COC(=O)c1c(C)cc(OC)cc1O,"inconclusive [inhibitor, partial curve]",
Cc1ccc(S(=O)(=O)N2CCN(C(=O)COc3ccc(NC(=O)c4ccco4)cc3)CC2)cc1,,inactive: 2.94%
Cc1ccc(C(=O)Nc2ccc3c(c2)OCO3)o1,,inactive: -13.2%
COc1ccc(CCNC(=O)CCSc2nc(-c3ccco3)cc(C(F)(F)F)n2)cc1OC,,inactive: -21.9%
O=C(CCCCCNc1nc(=S)[nH]c2ccccc12)NCCc1ccccc1,"inconclusive [inhibitor, partial curve]",
O=C(c1ccco1)N1CCC2(CC1)CN(c1ccccn1)C2,"inconclusive [inhibitor, partial curve]",
COc1cc(/C=N/NC(=O)C2(O)c3ccccc3-c3ccccc32)ccc1O,"inconclusive [inhibitor, single point]",
COC(=O)c1ccccc1Nc1cc(C)nc2nc(C)nn12,active: 1 µM,
CCCCc1ccc(Nc2ncccc2C#N)cc1,"inconclusive [inhibitor, partial curve]",
C=CCn1c(SCC(=O)Nc2ccc(-c3nc4ccc(C)cc4s3)cc2)nnc1-c1ccccc1,"inconclusive [inhibitor, partial curve]",
COc1ccc(-c2c(C#N)c(SCC(=O)c3cc4ccccc4oc3=O)nc(C)c2C(=O)Nc2ccccc2)cc1,"inconclusive [inhibitor, single point]",
Cc1ccc(Cl)cc1-c1ccc(C=Nc2ccc(N3CCOCC3)cc2)o1,"inconclusive [inhibitor, partial curve]",
CCO/C=C1\C(=O)N(c2ccccc2)C(=O)c2ccccc21,"inconclusive [inhibitor, partial curve]",
COc1ccc2cc(-c3nc4ccccc4n3C)c(=O)oc2c1,"inconclusive [inhibitor, partial curve]",
O=C(Cc1ccccc1)Nc1ccccc1Oc1ccccc1,,inactive: -2.09%
CCOC(=O)/C(=N\Nc1ccc(Cl)cc1)Sc1nnc(-c2ccc(OC)cc2)n1C,"inconclusive [inhibitor, partial curve]",
N#C/C(=C\c1cn(Cc2ccc(C#N)cc2)c2ccccc12)C(=O)NCc1cccs1,,inactive: -6.5%
CCOc1cc(/C=C2\CCC/C(=C\c3cc(Cl)c(O)c(OCC)c3)C2=O)cc(Cl)c1O,active: 15.8 µM,

Compound,Potency,"activity change, negative = inhibition"
CCCS(=O)(=O)c1c(S(=O)(=O)CCC)c2c(C)cccn2c1C(=O)OC,"inconclusive [inhibitor, single point]",
CCOC(=O)c1ccc(CC(=O)c2oc3cc(O)ccc3c2C)o1,"inconclusive [inhibitor, partial curve]",
O=C(Nc1ccccc1-c1nnc(SCc2ccc(Cl)cc2Cl)o1)c1ccccc1,"inconclusive [inhibitor, single point]",
Cc1cc(C)nc(SCC(=O)NC2=NC(=O)C(C)S2)n1 (stereo unspecified),"inconclusive [inhibitor, single point]",
COc1ccccc1NC(=S)NC(=O)/C=C/c1ccco1,active: 28.2 µM,
COc1cc(OC)c(-n2c(C)cc(C=O)c2C)cc1Cl,active: 3.55 µM,
COC(=O)C1(Cc2ccccc2)C2c3cc(C(=O)N4CCCC4)n(Cc4ccc(OC(F)(F)F)cc4)c3CC2CN1C(=O)c1ccccc1 (stereo unspecified),,inactive: -18.6%
CCOc1cc(C2C(C(=O)N3CCOCC3)=C(C)NC3=C2C(=O)CCC3)ccc1O (stereo unspecified),"inconclusive [inhibitor, partial curve]",
c1ccc2c(-c3nc(C4CCCCC4)no3)cc(-c3ccncc3)nc2c1,"inconclusive [inhibitor, partial curve]",
Cc1ccc(S(=O)(=O)Nc2ccccc2C(=O)Nc2nc(-c3ccc(F)cc3)cs2)cc1,"inconclusive [inhibitor, partial curve]",
Cc1cccc(CNc2ccnc(-c3ccc(C(=O)N(C)C)cc3)n2)c1,active: 8.91 µM,
O=C(Oc1cccnc1)c1cccc(Cl)c1,,inactive: -24.8%
S=c1[nH]cc(Cc2ccccc2)s1,active: 20 µM,
CCOC(=O)CN1C(=O)C(O)(c2c(C)[nH]c3ccccc23)c2ccccc21 (stereo unspecified),,inactive: -6.66%
Cn1c(NCc2ccccc2)cc(=O)n(C)c1=O,"inconclusive [inhibitor, single point]",
CC1(C)O[C@H]2C[C@@H]3[C@H]4CCC5=CC(=O)C=C[C@]5(C)[C@@]4(F)[C@@H](O)C[C@]3(C)[C@]2(C(=O)CO)O1,,inactive: -11.7%
CCn1cc(C(=O)NCc2ccc3c(c2)OCO3)c(=O)c2cc(F)c(N3CCN(C)CC3)cc21,"inconclusive [inhibitor, partial curve]",
O=C(COc1ccc(Cl)cc1Cl)NC(=O)N1CCCCC1,active: 15.8 µM,
CC(=O)c1cccc(NC(=O)c2cc(Cl)sc2Cl)c1,"inconclusive [inhibitor, partial curve]",
O=C(Nc1ccccc1C(=O)N1CCOCC1)c1cccc(S(=O)(=O)N2CCCC2)c1,,inactive: -2.01%
COc1cccc2cc(C(=O)N3CCN(C(=O)c4ccccc4)CC3)c(=O)oc12,"inconclusive [inhibitor, single point]",
Cc1occc1-c1nnc(SCC(=O)c2ccc(F)cc2)o1,"inconclusive [inhibitor, single point]",
Cc1cc(C)nc(N2CCC(C(=O)O)CC2)n1,"inconclusive [inhibitor, partial curve, poor fit]",
